In PubChem BioAssay AID1745853 (National Center for Advancing Translational Sciences (NCATS), 2022) one finds activity change, negative = inhibition data, which are given here for 18 molecules.

The list shows a part of the results. The main result of the screen is listed elsewhere. These columns were measured beside it and carry no call.

Assay in all cases: Primary Screen for Target Class Profiling of Small Molecule Inhibitors of Methyltransferases
Test [1] deals with Glycine N-methyltransferase (Homo sapiens) (UniProt Q14749). The note with it: purified enzyme, MTase-Glo SAH luminescence; measured here: GNMT inhibition; at 40 µM; stronger effect = lower value. In outline: (§1)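 Each enzyme was reacted with SAM and its substrate, with compounds tested once at 40 uM; SAH formed was read by MTase-Glo luminescence.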
For test [2], the target named is Guanidinoacetate N-methyltransferase (Homo sapiens) (UniProt Q14353). Conditions: purified enzyme, MTase-Glo SAH luminescence; measured here: GAMT inhibition; at 40 µM; stronger effect = lower value. In outline:
as §1

For test [3], the target named is Histamine N-methyltransferase (Homo sapiens) (UniProt P50135). The note with it: purified enzyme, MTase-Glo SAH luminescence; measured here: HNMT inhibition; at 40 µM; stronger effect = lower value. In outline: as §1
Test [4] deals with Nicotinamide N-methyltransferase (Homo sapiens) (UniProt P40261). The note with it: purified enzyme, MTase-Glo SAH luminescence; measured here: NNMT inhibition; at 40 µM; stronger effect = lower value. In a few lines: as §1
Test [5] deals with Phenylethanolamine N-methyltransferase (Homo sapiens) (UniProt P11086). Conditions: purified enzyme, MTase-Glo SAH luminescence; measured here: PNMT inhibition; at 40 µM; stronger effect = lower value. In outline: as §1
On the % scale 0 is the no-effect control and ±100 the full control effect.

With `CCc1ccc(C2c3cccn3-c3ccccc3CN2C(=O)NCc2ccc(F)cc2)cc1` (stereo not drawn), the activity change, negative = inhibition in test [1] was 5.49%; in test [2] it was 0.757%; in test [3] it was -1.55%; in test [4], 2.3%; in test [5], 5.61%.

In the case of `CC(C)NC(=O)NC[C@H]1C[C@@H]2CCN1C[C@@H]2CN1CCSCC1`, the activity change, negative = inhibition in test [1] was -6.02%; in test [2], -5.82%; in test [3], -13%; in test [4], -9.86%; in test [5] it was -1.95%.

For the molecule `CCOC(=O)C1(CCc2ccccc2)CCN(Cc2ccc(NC(C)=O)cc2)CC1`, the activity change, negative = inhibition in test [1] is -4.14%; in test [2], -8.9%; in test [3], -4.6%; in test [4], -28%; in test [5] it was -4.69%.

Consider `COCCCNC(=O)N1Cc2ccccc2-n2cccc2C1c1cc(F)cc(F)c1` (stereo not drawn), for which the activity change, negative = inhibition was 7.24% in test [1]; 3.24% in test [2]; 3.42% in test [3]; -4.09% in test [4]; 3.06% in test [5].

Take `Cc1cccc(C2c3cccn3-c3ccccc3CN2C(=O)NCc2ccc(F)cc2)c1` (stereo not drawn): the activity change, negative = inhibition in test [1] is 7.04%; in test [2], 2.79%; in test [3] it was 1.7%; in test [4], -2.96%; in test [5], 1.46%.

`CCc1ccc(C2c3cccn3-c3ccccc3CN2C(=O)Nc2cccc(C(F)(F)F)c2)cc1` (stereo not drawn): the activity change, negative = inhibition in test [1] is 9.46%; in test [2], 4%; in test [3], 2.7%; in test [4], -4.38%; in test [5] it was 1.84%.

Take `Ic1ccccc1CNC1C2CCN(CC2)C1C(c1ccccc1)c1ccccc1` (stereo not drawn): the activity change, negative = inhibition in test [1] is -12.7%; in test [2], 9.67%; in test [3], -13.2%; in test [4], -11.5%; in test [5], -12.6%.

For the molecule `CCOc1ccc(NC(=O)N2Cc3ccccc3-n3cccc3C2c2ccc(C)cc2)cc1` (stereo not drawn), the activity change, negative = inhibition in test [1] stood at 12.1%; in test [2], 0%; in test [3], 9.21%; in test [4], 9.03%; in test [5], 6.36%.

In the case of `CC(C)C1CN2CCCC2CN1` (stereo not drawn), the activity change, negative = inhibition was -1.51% in test [1]; -1.05% in test [2]; 1.56% in test [3]; 1.49% in test [4]; -1.4% in test [5].

Regarding `COc1cccc(CNC(=O)N2Cc3ccccc3-n3cccc3C2c2ccc(Cl)cc2)c1` (stereo not drawn), the activity change, negative = inhibition in test [1] is 2.68%; in test [2] it was 1.56%; in test [3], 4.23%; in test [4] it was 4.3%; in test [5], 6.83%.

In the case of `COc1ccc2c(c1)/C(=C/c1cnc[nH]1)C(=O)N2`, the activity change, negative = inhibition was -4.29% in test [2], -18.9% in test [4] and -19.6% in test [5].

In the case of `COCCCNC(=O)N1Cc2ccccc2-n2cccc2C1c1ccc(SC)cc1` (stereo not drawn), the activity change, negative = inhibition in test [1] is -3.64%; in test [2], 0%; in test [3], -3.17%; in test [4], -12%; in test [5] it was 2.23%.

As for `CCOC(=O)Cc1ccc(NC(=O)N2Cc3ccccc3-n3cccc3C2c2ccccc2)cc1` (stereo not drawn), the activity change, negative = inhibition in test [1] is 4.05%; in test [2], 4.08%; in test [3], 2.57%; in test [4], -1.05%; in test [5], -0.304%.

Turning to `O=C(c1cccs1)N1C[C@@H]2C[C@H](C1)c1ccc(C3CCCCC3)c(=O)n1C2`, the activity change, negative = inhibition in test [1] is -7.34%; in test [2], -9.72%; in test [3], -4.46%; in test [4] it was -18%; in test [5], -2.73%.

Consider `CCCN(CCC)CCc1ccc(O)c(O)c1`, for which the activity change, negative = inhibition in test [1] was -4.25%; in test [2] it was 4.92%; in test [3] it was -14.6%; in test [4], -4.87%; in test [5] it was 10.3%.

For the molecule `Cc1cccc(C2c3cccn3-c3ccccc3CN2C(=O)Nc2ccc(Cl)cc2)c1` (stereo not drawn), the activity change, negative = inhibition in test [1] was 5.51%; in test [2] it was 4.09%; in test [3], -3.13%; in test [4], -0.495%; in test [5] it was 3.23%.

Consider `Cc1ccc(NC(=O)N2Cc3ccccc3-n3cccc3C2C(C)C)cc1` (stereo not drawn), for which the activity change, negative = inhibition in test [1] was -0.529%; in test [2], 0%; in test [3], 9.23%; in test [4], 11.1%; in test [5] it was 9.88%.

Regarding `O=[S+]1([O-])NC2(CCN(Cc3cccnc3)C2)COc2ccncc21` (stereo not drawn), the activity change, negative = inhibition in test [1] was -1.66%; in test [2] it was 0.821%; in test [3], 0.25%; in test [4], 0.564%; in test [5], -5.43%.
